Measured values reported in PubChem BioAssay AID651812 (National Center for Advancing Translational Sciences (NCATS), 2012).
Out of some 2,100 compounds screened, about 650 (31%) were called active. Inconclusive results, whose numbers are uncertain, are shown with a selection of clear calls. Calls come from the whole dose curve; as a rule, active = well fitted inhibition curve with a large enough effect; inconclusive = small, poorly fitted or top-dose-only effect; inactive = flat fitted curve, though single readings scatter. Potencies of inconclusive entries are left out as doubtful fits.

Test: qHTS for inhibitors of Vif-A3G interactions: Cherry picks; note: nearly all actives have a fitted effect of over 80% in size
Details: HeLa A3G-eYFP + Vif (tagged APOBEC3G with the HIV-1 protein that degrades it), 24 h; Potency: eYFP fluorescence increase unless noted; series mostly up to 36.9 µM
Procedure, shortened: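 Cherry-picked compounds tested at several concentrations on A3G-eYFP/Vif HeLa cells for 24 hours; loss of Vif-driven degradation read as eYFP fluorescence by cytometric plate imaging, 488 nm excitation, 500-530 nm emission.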
Potency is the fitted concentration of half-maximal effect; tags give direction and shape of the fitted curve.

| SMILES | Potency |
| --- | --- |
| c1ccc2c(c1)Cc1cc3ccccc3nc1-2 | inconclusive [inhibitor, full curve, poor fit] |
| CSc1nsc(/C=C/Nc2ccc(C)cc2)c1C#N | inconclusive [inhibitor, single point] |
| CN(C)c1ccc(/C=N/NC(=O)c2cc(-c3ccc4c(c3)OCO4)n[nH]2)cc1 | inconclusive [inhibitor, single point] |
| C=CCOC(=O)C1=C(C)Nc2nnnn2C1c1cccs1 (stereo not given) | inactive |
| O=C(Nc1ccc(N2CCN(C(=O)c3ccc(Cl)cc3)CC2)cc1)c1ccc([N+](=O)[O-])o1 | inconclusive [inhibitor, single point] |
| CCOc1cc([N+](=O)[O-])cc2c1C(=O)Nc1ccccc1O2 | inconclusive [inhibitor, single point] |
| CCOC(=O)c1ccc(Nc2nc3ccccc3nc2NS(=O)(=O)c2ccc(Cl)cc2)cc1 | inconclusive [inhibitor, single point] |
| C(=C\c1ccco1)/C1=NN(c2ccccc2)C(c2ccco2)C1 (stereo not given) | active: 23.1 µM |
| CCNc1ccc(Br)cc(C(=O)/C=C/c2ccc(Cl)cc2)c1=O | inconclusive [inhibitor, single point] |
| CCOC(=O)/C=c1\s/c(=C\c2c(OC)ccc3ccccc23)c(=O)n1CC(=O)NCC1CCCO1 (stereo not given) | inconclusive [inhibitor, single point] |
| N#C/C(=C/c1ccc(O)c(O)c1)c1nc2ccccc2[nH]1 | inconclusive [inhibitor, full curve, poor fit] |
| N#Cc1cc2ccccc2nc1SCc1ccccn1 | inconclusive [inhibitor, single point] |
| CC(=O)N1CCc2c(sc(NC(=O)CSc3ccccc3)c2-c2nc3ccccc3s2)C1 | inconclusive [inhibitor, single point] |
| Nc1ccccc1/C=C/c1ccnc2ccccc12 | inconclusive [inhibitor, single point] |
| CC1=NOC(=O)/C1=C\c1ccc(-c2ccc(Br)cc2)o1 | inactive |
| Cc1noc(C)c1COc1ccc(C(=O)NNC(=O)c2ccccc2)cc1 | inactive |
| CC[n+]1c(/C=C/N(C)c2ccccc2)oc2ccc(F)cc21 | active: 17.7 µM |
| O=C(CCCCl)Oc1ccc2cc(-c3ccc4ccccc4n3)c(=O)oc2c1 | inconclusive [inhibitor, full curve] |
| COc1cc(/C=C2\SC(=S)N(NC(=O)c3ccccc3OC)C2=O)ccc1O | inconclusive [inhibitor, partial curve] |
| O=C(COC(=O)C12CC3CC(CC(Cl)(C3)C1)C2)N1CCCCC1 | inactive |
| COc1cc(C2Nc3ccc4ncccc4c3C3=C2C(=O)CCC3)cc(OC)c1O (stereo not given) | inactive |
| CCOC(=O)Nc1cc2c(c(N)n1)N=C(c1ccccc1)CN2 | inconclusive [inhibitor, full curve, poor fit] |
| COc1cc2c3nnc(-c4ccccc4)c-3cn(Cc3ccccc3F)c2cc1OC | inconclusive [inhibitor, single point] |
| COc1ccc(Cl)cc1NC(=O)CSc1nc2c([nH]c3ccccc32)c(=O)n1-c1ccccc1 | inconclusive [inhibitor, single point] |

| SMILES | Potency |
| --- | --- |
| CCCOc1cc(N(CC)CC)ccc1/C=C(/C#N)c1nc2ccc(C)cc2[nH]1 | active: 18.4 µM |
| Cc1ccc(C)c2nc3sc(C(=O)N4CCOCC4)c(N)c3cc12 | inconclusive [inhibitor, single point] |
| N#CCc1nc2ccc(S(=O)(=O)N3CCOCC3)cc2s1 | inconclusive [inhibitor, single point] |
| O=S(=O)(Nc1nc2ccccc2nc1N1CCc2ccccc2C1)c1ccc(Br)cc1 | inactive |
| O=C(NCCC1=CCCCC1)C1CCC(CNc2nc(=S)[nH]c3ccccc23)CC1 (stereo not given) | inconclusive [inhibitor, single point] |
| CC(=O)Nc1ccc(/C=C/C(=O)c2ccc(-n3nncc3-c3ccccc3)cc2)cc1 | inconclusive [inhibitor, single point] |
| COc1cc(/C=C2\COC/C(=C\c3ccc(O)c(OC)c3)C2=O)ccc1O | inconclusive [inhibitor, single point] |
| Cc1cc(/C=C2\SC(=S)N(C)C2=O)c(C)n1-c1ccccc1O | active: 23.1 µM |
| O=C(Nc1cc(C(F)(F)F)ccc1-n1cncn1)c1ccc([N+](=O)[O-])o1 | inconclusive [inhibitor, single point] |
| CCCCN(CCC(=O)O)c1ccc(/C=C/c2ccnc3ccccc23)cc1 | active: 18.4 µM |
| COc1ccc(C(=O)C[n+]2cccc3cc(Cl)ccc32)cc1 | inconclusive [inhibitor, single point] |
| CCOC1=C2CN(S(=O)(=O)c3ccc(C)cc3)[C@H](c3cccc4ccccc34)C[C@H]2C(C#N)(C#N)C(C#N)(C#N)C1 | inconclusive [inhibitor, single point] |
| Cc1cc(/C=C/c2ccnc3ccccc23)ccc1N | active: 18.4 µM |
| Cc1cccc(NC(=O)N2CC=C(c3c[nH]c4ccccc34)CC2)c1C | inconclusive [inhibitor, single point] |
| Cc1cccc(/C=C/C(=O)c2ccc([N+](=O)[O-])o2)c1 | inactive |
| Cc1ccc(CNC(=O)c2cccc(Nc3nc4ccccc4n4nnnc34)c2)cc1 | inconclusive [inhibitor, partial curve] |
| NC(=O)CC(NC(=O)Cc1ccc(Br)cc1)c1ccc(NCc2ccc(F)cc2)c([N+](=O)[O-])c1 (stereo not given) | inconclusive [inhibitor, single point] |
| CCc1ccc2nc(SCC(=O)N3CC(=O)Nc4ccccc43)c(C#N)cc2c1 | inconclusive [inhibitor, single point] |
| Cc1cc(-n2c(SCC(=O)Nc3ccc(Br)cc3)nc3n[nH]c(C)c3c2=N)ccc1Cl | inconclusive [inhibitor, partial curve, poor fit] |
| COc1ccc(-c2cc3ccccc3oc2=O)cc1NC(=S)NC(=O)c1ccc2c(c1)OCCO2 | inactive |
| c1ccc(N=NC2=NN(c3ccccc3)CS2)cc1 | inactive |
| COc1ccc(-c2[nH]ncc2N=Nc2ccccc2)cc1 | inactive |
| COc1cccc(-c2ccc3c(N)c(C(=O)c4ccc(Cl)cc4)sc3n2)c1 | inconclusive [inhibitor, single point] |
| CCOC(=O)/C=c1/s/c(=C\c2c(OC)ccc3ccccc23)c(=O)n1CC(=O)NCC1CCCO1 (stereo not given) | inconclusive [inhibitor, single point] |

| SMILES | Potency |
| --- | --- |
| C=CCN1C(=O)/C(=C/c2ccc(O)c(OC)c2)S/C1=N/c1nccs1 | inconclusive [inhibitor, single point] |
| N#Cc1cc2ccccc2nc1SCC(=O)Nc1ccccc1N1CCOCC1 | inconclusive [inhibitor, single point] |
| O=C(O)c1ccc(-c2ccc(/C=N/Nc3ccc([N+](=O)[O-])cc3)o2)cc1 | inconclusive [inhibitor, single point] |
| COc1cc(C(=O)Nc2nnc(Cc3ccccc3)s2)cc(OC)c1OC | inactive |
| NC(=O)C1CCN(c2nc3ccccc3nc2NS(=O)(=O)c2ccc(Br)cc2)CC1 | inactive |
| CCOC(=O)CSc1nc2c(c(=O)[nH]1)C(C)(CC)Cc1ccccc1-2 (stereo not given) | inactive |
| COc1ccc(C(=O)c2sc3nc(C)cc(-c4cccs4)c3c2N)cc1 | active: 18.4 µM |
| N#Cc1c(C(F)(F)F)cc(-c2cccs2)nc1SCC(=O)Nc1ccc(Cl)cc1 | inconclusive [inhibitor, full curve] |
| O=C1C=C(Nc2ccc(Cl)cc2Cl)CC(c2ccco2)C1 (stereo not given) | inactive |
| N#CCSc1ccccc1NC(=O)COC(=O)CCNC(=O)c1ccc([N+](=O)[O-])cc1 | inconclusive [inhibitor, single point] |
| Nc1ncnc2c1ncn2[C@@H]1O[C@H](CNCc2ccc(OCc3ccccc3)cc2)[C@@H](O)[C@H]1O | inconclusive [inhibitor, single point] |
| COc1cc(C(=O)N2CC(=O)Nc3ccccc32)cc(OC)c1OC | inactive |
| CN(C)c1ccc(/C=C/c2ccnc3ccc(N)cc23)cc1 | active: 18.4 µM |
| N#C/C(=C/c1ccc(-c2ccc([N+](=O)[O-])cc2)o1)C(=O)Nc1nc(-c2cccs2)cs1 | inactive |
| CO/N=C/c1ccc(OC)c(Oc2nc(OC)cc(OC)n2)c1 | inactive |
| CCOC(=O)/C(=C/C1=CC(=C/N(C)C)/C(=O)O1)C(C)=O | inconclusive [inhibitor, single point] |
| CC1=Nc2ccc(C)cc2/C1=C/c1c(N)n2oc(C)cc2nc1=O | inconclusive [inhibitor, single point] |
| CN1CCC(OC(=O)c2cc3cc(Cl)cc(Cl)c3oc2=O)CC1 | inactive |
| Cc1ccc2c(/C=C/c3ccc(N(C)C)cc3)ccnc2c1 | inconclusive [inhibitor, single point] |
| Cc1ccc2nc(C)c(C(=O)NN=C3CCCCCC3)n2c1 | inactive |
| COc1ccc(Cn2c(C)nc3c(c2=O)c2nc4ccccc4nc2n3Cc2ccco2)cc1 | active: 5.8 µM |
| Cc1ccc2ccc3cc(C(=O)Nc4ccc(C)c(F)c4)nc3c2[nH]1 | inconclusive [inhibitor, single point] |
